Measurements reported in PubChem BioAssay AID1460 (National Center for Advancing Translational Sciences (NCATS), 2008).
“And” between values parts separate entries of the source, which are not always exact repeats. Identical values can stand only once. The whole screen tested about 270,000 compounds, of which about 5,800 (2.1%) were called active. Inconclusive results, whose numbers are uncertain, are shown with a selection of clear calls. Calls come from the whole dose curve; as a rule, active = well fitted inhibition curve with a large enough effect; inconclusive = small, poorly fitted or top-dose-only effect; inactive = flat fitted curve, though single readings scatter. A potency beside an inconclusive call is a rough fit, not a confirmed value.
Note: nearly all actives have a fitted effect of over 55% in size.
Potency is the fitted concentration of half-maximal effect; tags give direction and shape of the fitted curve.

Each compound was assayed against Microtubule-associated protein tau (Homo sapiens) (UniProt P10636) (assay: qHTS for Inhibitors of Tau Fibril Formation, Thioflavin T Binding). Settings: recombinant tau K18 P301L (four-repeat tau fragment), heparin-induced fibrillization, ThT fluorescence; series mostly up to 57.4 µM.
Chain of UniProt P10636 (P10636 whole entry, looked up, the tested form may be a part): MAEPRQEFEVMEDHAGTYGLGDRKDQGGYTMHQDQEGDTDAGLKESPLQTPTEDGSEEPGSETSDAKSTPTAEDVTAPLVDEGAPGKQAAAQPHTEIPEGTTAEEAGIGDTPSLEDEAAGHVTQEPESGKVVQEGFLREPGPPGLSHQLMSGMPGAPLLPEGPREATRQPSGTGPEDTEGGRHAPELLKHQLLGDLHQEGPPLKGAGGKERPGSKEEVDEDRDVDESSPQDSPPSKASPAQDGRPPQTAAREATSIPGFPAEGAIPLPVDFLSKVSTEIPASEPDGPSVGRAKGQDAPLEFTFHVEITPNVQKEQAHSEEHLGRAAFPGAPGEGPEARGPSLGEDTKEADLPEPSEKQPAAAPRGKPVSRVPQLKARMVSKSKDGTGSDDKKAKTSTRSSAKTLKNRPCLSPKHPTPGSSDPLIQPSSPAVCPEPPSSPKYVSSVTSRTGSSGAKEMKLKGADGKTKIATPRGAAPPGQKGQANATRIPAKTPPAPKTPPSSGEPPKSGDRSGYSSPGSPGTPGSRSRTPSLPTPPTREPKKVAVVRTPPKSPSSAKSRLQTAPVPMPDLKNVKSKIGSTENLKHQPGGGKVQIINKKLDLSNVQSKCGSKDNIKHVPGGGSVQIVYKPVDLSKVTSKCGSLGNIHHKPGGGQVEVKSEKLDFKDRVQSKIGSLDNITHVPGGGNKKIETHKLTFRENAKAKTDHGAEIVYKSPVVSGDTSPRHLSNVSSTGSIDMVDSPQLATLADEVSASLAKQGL
Summary of the method: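 Tau K18 P301L fragment (15 uM unlabeled plus 0.24 uM Alexa 594-labeled) in 100 mM sodium acetate pH 7 with compound, fibrillization induced by 20 uM heparin for 6 hr at 37 C. Thioflavin T (30 uM) added, fluorescence read after 1 hr (ex 450, em 510 nm).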
In the case of CCCCn1c(O)c(C(CC)=Nc2ccc(OC)cc2OC)c(=O)[nH]c1=O, the Potency is reported as “inactive”.
With CC1=C(C(=O)OC(C)C)[C@]2(C(=O)N(CC(N)=O)c3ccccc32)C(C#N)=C(N)O1 the Potency was “inactive”.
COc1cc(N2CCOCC2)ccc1/C=C1\C(=O)NC(=O)N(Cc2ccc3c(c2)OCO3)C1=O was tested, and the Potency was inconclusive: 3.98 µM [inhibitor, full curve].
Cc1c(N=Cc2c(O)n(Cc3ccccc3)c(=O)[nH]c2=O)c(=O)n(-c2ccccc2)n1C was tested, and the Potency was “inactive”.
For COc1ccc2nc(NC3=NCCN3)sc2c1, the Potency was inconclusive: 25.1 µM [inhibitor, partial curve].
For CN1CCN(Cc2cc(C(C)(C)C)c(O)c(C(C)(C)C)c2)CC1, the Potency was inconclusive: 14.1 µM [inhibitor, partial curve].
For CC1OC(OC2CCC3(C)C(CCC4C3CC(O)C3(C)C(C5=CC(=O)OC5)CCC43O)C2)CC(O)C1OC1CC(O)C(OC2CC(O)C(OC3OC(CO)C(O)C(O)C3O)C(C)O2)C(C)O1 (stereo not drawn), the Potency was inconclusive: 0.0794 µM [inhibitor, full curve, poor fit].
With CN1CC[C@@]2(C)c3cc(OC(=O)Nc4ccccc4)ccc3N(C)[C@@H]12 the Potency was active: 31.6 µM.
With CC1(C)CC(=O)C2=C(C1)OC(N)=C([N+](=O)[O-])C2c1ccc(C#N)s1 (stereo not drawn) the Potency was active: 8.91 µM.
For COc1ccc(-n2c(/C=C3/C(=O)Nc4ccccc43)nc3ccccc3c2=O)cc1, the Potency was inconclusive: 22.4 µM [inhibitor, single point].
O=C(O)CCn1cc(C=C2C(=O)NC(=S)NC2=O)c(-c2cccc(Cl)c2)n1 was tested, and the Potency was inconclusive: 5.01 µM [inhibitor, single point].
With C=C1CC[C@H](O)C/C1=C/C=C1\CCC[C@]2(C)[C@@H]([C@H](C)CCCC(C)C)CC[C@@H]12 the Potency was active: 22.4 µM.
In the case of O=C1NC(=O)C2(Cc3ccccc3N3CCCC32)C(=O)N1c1ccc(Cl)cc1 (stereo not drawn), the Potency is reported as inconclusive: 8.91 µM [inhibitor, partial curve].
With C=CCn1c(O)c(C(CC)=Nc2ccc(N(CC)CC)cc2)c(=O)[nH]c1=O the Potency was inconclusive: 6.31 µM [inhibitor, partial curve].
In the case of O=C1NC(=O)N(c2ccccc2)C(=O)/C1=C/c1ccc([N+](=O)[O-])s1, the Potency is reported as active: 14.1 µM.
With Nc1c2c(nc3sc4c(c13)CCCCC4)CCCC2 the Potency was inconclusive: 14.1 µM [inhibitor, partial curve, poor fit].
With CN(C)C1C(=O)C(C(N)=O)C(=O)C2(O)C(=O)C3C(=O)c4c(O)cccc4C(C)(O)C3C(O)C12 (stereo not drawn) the Potency was active: 4.47 µM.
Oc1c(Cl)cc(Cl)cc1CN1CCN(Cc2ccccc2)CC1 was tested, and the Potency was “inactive”.
With CC1CC(C)C(=O)[C@H](C(O)CC2CC(=O)NC(=O)C2)C1 (stereo partly drawn) the Potency was “inactive”.
For CC(=O)c1cccc(NC(=O)c2cccn(Cc3cccc(C)c3)c2=O)c1, the Potency was inconclusive: 17.8 µM [inhibitor, partial curve].
For COc1cc2[nH]c(=O)n(CCCCCC(=O)N3CCN(c4cccc(C(F)(F)F)c4)CC3)c(=O)c2cc1OC, the Potency was inconclusive: 4.47 µM [inhibitor, partial curve].
For Fc1ccc2c(c1)nnn2C1CCN(Cc2nnnn2C2CCCCC2)CC1, the Potency was “inactive”.
For O=c1[nH]c(CN2CC=C(c3ccccc3)CC2)nc2scc(-c3cccs3)c12, the Potency was inconclusive: 15.8 µM [inhibitor, partial curve].
With CCOC(=O)c1c(C)n(Cc2ccco2)c2ccc(OC)cc12 the Potency was inconclusive: 39.8 µM [inhibitor, single point].
For CC(=O)c1ccc(OC(C)C)c(Cc2c(O)[nH]c(=S)[nH]c2=O)c1, the Potency was inconclusive: 14.1 µM [inhibitor, partial curve].
For Cc1c2ccncc2c(C)c2c1[nH]c1ccccc12, the Potency was active: 10 µM and active: 11.2 µM.
With CC[C@@]1(O)C(=O)OCc2c1cc1n(c2=O)Cc2cc3c(NC(=O)CN)cccc3nc2-1 the Potency was inconclusive: 12.6 µM [inhibitor, partial curve, poor fit].
CN(C)c1ncc(/C=C2/C(=O)NC(=S)N(C3CCCCC3)C2=O)cn1 was tested, and the Potency was inconclusive: 14.1 µM [inhibitor, partial curve, poor fit].
CC(=O)Oc1c2c(c(CC=C(C)C)c3c1C(=O)C1=CC4CC5C(C)(C)OC(C/C=C(\C)C(=O)O)(C4=O)[C@]15O3)OC(C)(CCC=C(C)C)C=C2 (stereo partly drawn) was tested, and the Potency was active: 7.08 µM.
In the case of CCOC(=O)C(NC(=O)CC)(Nc1ccc(C(O)(C(=O)OCC)C(F)(F)F)cc1C)C(F)(F)F (stereo not drawn), the Potency is reported as inconclusive: 39.8 µM [inhibitor, partial curve, poor fit].
O=C1NC(=O)N(CCC2=CCCCC2)C(=O)/C1=C/c1cccs1 was tested, and the Potency was “inactive”.
ClC1=C(Cl)C(Cl)=C(Cl)C1=C/C=C/c1ccccc1 was tested, and the Potency was active: 11.2 µM.
For O=S(=O)(O)c1cc(N=C=S)ccc1/C=C/c1ccc(N=C=S)cc1S(=O)(=O)O, the Potency was inconclusive: 14.1 µM [inhibitor, partial curve].
For CN1C(=O)C(=Cc2ccc(N3CCOCC3)c([N+](=O)[O-])c2)C(=O)N(C)C1=O, the Potency was inconclusive: 7.08 µM [inhibitor, partial curve].
NC(=O)C1CCN(/C=C2\C(=O)NC(=O)N(Cc3ccco3)C2=O)CC1 was tested, and the Potency was inconclusive: 39.8 µM [inhibitor, single point].
C=CCn1c(O)c(C(C)=Nc2ccc(C(=O)OCC)cc2)c(=O)[nH]c1=O was tested, and the Potency was inconclusive: 39.8 µM [inhibitor, partial curve].
CC(=O)Oc1ccccc1C(=O)Nc1ncc([N+](=O)[O-])s1 was tested, and the Potency was active: 11.2 µM.
With C=C(C)CSc1nnc([C@@H](N)Cc2c[nH]c3ccccc23)o1 the Potency was “inactive”.
CC/C(=N\Nc1ccccc1)c1c(O)n(-c2ccccc2)c(=O)[nH]c1=O was tested, and the Potency was inconclusive: 2.51 µM [inhibitor, partial curve].
CN(C)c1ccc(NC(=O)CN2C(=O)CN=C(c3ccccc3)c3cc(Cl)ccc32)cc1 was tested, and the Potency was inconclusive: 31.6 µM [inhibitor, partial curve].
In the case of COc1cc(/C=C2\C(=O)NC(=O)N(c3ccccc3)C2=O)c([N+](=O)[O-])cc1OC, the Potency is reported as inconclusive: 20 µM [inhibitor, partial curve].
For O=C(c1ccc(CNS(=O)(=O)c2ccccc2)cc1)N1CCC2(CC1)OCCO2, the Potency was inconclusive: 28.2 µM [inhibitor, partial curve, poor fit].
For COC(=O)C1=Nc2ccccc2/C1=C\c1c(O)n(C)c(=O)n(C)c1=O, the Potency was inconclusive: 22.4 µM [inhibitor, partial curve].
Cc1nc2c(=O)n(C)c(=O)nc-2n(C)n1 was tested, and the Potency was inconclusive: 7.08 µM [inhibitor, single point].
With CCCCn1c(=O)c(C(=O)NCc2ccncc2)c(O)c2ccccc21 the Potency was inconclusive: 35.5 µM [inhibitor, partial curve, poor fit].
For CNc1cc(N2CCNCC2)ccc1[N+](=O)[O-], the Potency was inconclusive: 14.1 µM [inhibitor, partial curve].
In the case of O=c1[nH]c(=O)n(Cc2ccc(F)cc2)c(O)c1C=NCc1cccnc1, the Potency is reported as “inactive”.
CCOP(=O)(OCC)c1nc(-c2cccc3ccccc23)oc1NCCc1ccc(OC)cc1 was tested, and the Potency was inconclusive: 39.8 µM [inhibitor, single point].
For Cc1ccc(CN2CC3CC(C2)c2cccc(=O)n2C3)cc1 (stereo not drawn), the Potency was inconclusive: 39.8 µM [inhibitor, single point].
In the case of O=C1NC(=S)NC(=O)C1=Cc1cccn1-c1ccc(O)cc1, the Potency is reported as active: 25.1 µM.
COc1ccc(OC)c(N2C(=O)NC(=O)C3(Cc4cc(C)ccc4N(C)C3)C2=O)c1 (stereo not drawn) was tested, and the Potency was inconclusive: 31.6 µM [inhibitor, single point].
In the case of Cc1ccc(N2C(=O)NC(=O)/C(=C\c3cnc(-c4ccccc4)nc3)C2=O)cc1, the Potency is reported as inconclusive: 7.94 µM [inhibitor, partial curve].
In the case of Cc1c(C=C2C(=O)NC(=O)NC2=O)c(=O)n(-c2ccccc2)n1C, the Potency is reported as inconclusive: 5.01 µM [inhibitor, full curve, poor fit].
With CCOc1ccc(Nc2c(S(=O)(=O)c3ccc(C)cc3)cnc3ccc(F)cc23)cc1 the Potency was inconclusive: 11.2 µM [inhibitor, partial curve].
For O=C(Nc1ccc2nc(-c3cccs3)c(-c3cccs3)nc2c1)NC1CC1, the Potency was inconclusive: 17.8 µM [inhibitor, partial curve, poor fit].
For NCc1cc(=O)[nH]o1, the Potency was inconclusive: 17.8 µM [inhibitor, partial curve].
For COc1cc2c(cc1OC)-c1c(OC)c(OC)cc3c1[C@H](C2)N(C)CC3, the Potency was inconclusive: 28.2 µM [inhibitor, partial curve].
In the case of C=CCNC(=S)Nc1ccc(OC(=O)Nc2ccc(Cl)c(Cl)c2)cc1, the Potency is reported as inconclusive: 6.31 µM [activator, full curve].
In the case of CCOc1ccc(C(=O)Nc2cccc(C(=O)OCc3cc(=O)n4nc(C5CC5)sc4n3)c2)cc1, the Potency is reported as inconclusive: 1 µM [inhibitor, full curve].
N#CC1=C(N)Oc2n[nH]c(-c3ccccc3)c2C1c1ccncc1 (stereo not drawn) was tested, and the Potency was inconclusive: 25.1 µM [inhibitor, single point].
With CC(Cc1ccccc1Sc1ccc(O)cc1)N(C)C (stereo not drawn) the Potency was “inactive”.
In the case of Cc1cc(C)c(NC2=NCCCS2)c(C)c1, the Potency is reported as “inactive”.
With COc1ccc(Cl)cc1NC(=O)C1CCN(c2nnc(C)c3c(C)n(-c4ccccc4)nc23)CC1 the Potency was inconclusive: 35.5 µM [inhibitor, single point].
